Values joined by “and” are separate entries in the source; they are usually repeats but may differ in a detail not shown here. Equal values may be shown once. Screen size: about 310,000 compounds; about 11,000 (3.5%) were called active. The shares of active, inactive and inconclusive entries below differ from those in the screen. Calls come from the whole dose curve; as a rule, active = well fitted inhibition curve with a large enough effect; inconclusive = small, poorly fitted or top-dose-only effect, or effect the other way; inactive = flat fitted curve, though single readings scatter. Where the call is inconclusive, the potency comes from a doubtful curve fit. A structure can be active in one record and inactive in another.
test: VP16 counterscreen qHTS for inhibitors of ROR gamma transcriptional activity; conditions: Drosophila S2 Gal4-VP16 UAS-luciferase, luminescence, 20 h; series mostly up to 53.6 µM;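 note: Gal4-VP16 expression switched on by copper sulfate through the metallothionein promoter; nearly all actives have a fitted effect of over 50% in size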
Potency is the fitted concentration of half-maximal effect; tags give direction and shape of the fitted curve.

Question: Which Potency does the source give for `CC/C(=N\NC(=O)c1ccccc1Cl)c1c(O)n(C2CCCCC2)c(=O)[nH]c1=O` here?
Answer: active: 12.6 µM

Question: For `CSc1ncc(CN2CCCC(C(=O)c3sccc3C)C2)cn1` (stereo unspecified), which Potency is on record?
Answer: inactive

Question: With `Cc1ccc(N2C(=O)NC(=O)/C(=C/C=C/c3ccco3)C2=O)cc1` as the compound, how does the Potency read?
Answer: active: 10 µM

Question: For `c1ccc(CC(NCc2ccco2)c2ccccc2)cc1` (stereo unspecified), which Potency is on record?
Answer: inconclusive: 0.0045 µM [inhibitor, full curve, poor fit]

Question: For `CCCCNC(=O)c1c(N)n(Cc2ccc3c(c2)OCO3)c2nc3ccccc3nc12`, which Potency is on record?
Answer: inconclusive: 35.5 µM [inhibitor, partial curve]

Question: With `O=C1CCC[C@H]2[C@H]3CCCN4CCCC(=CN12)[C@@H]34` as the compound, how does the Potency read?
Answer: inactive

Question: With `CC/C(=N\Nc1cccc2ccccc12)c1c(O)[nH]c(=O)[nH]c1=O` as the compound, how does the Potency read?
Answer: inconclusive: 6.31 µM [inhibitor, single point]

Question: For `c1ccc(P(c2ccccc2)c2ccccn2)cc1`, which Potency is on record?
Answer: inactive

Question: Which Potency does the source give for `Cc1cc(-c2n[nH]c(=S)n2CC(C)C)cs1` here?
Answer: inconclusive: 22.4 µM [inhibitor, single point]

Question: Which Potency does the source give for `O=C(NC1CCCCC1)c1cn(CCN2CCOCC2)c2cc(Cl)ccc2c1=O` here?
Answer: inactive

Question: For `C=CCN=C(SCC(=O)c1ccc(Cl)cc1)c1c(O)n(C)c(=O)n(C)c1=O`, which Potency is on record?
Answer: inconclusive: 35.5 µM [inhibitor, single point]

Question: Which Potency does the source give for `CCN(CC)C(=S)NCCc1ccccc1` here?
Answer: inconclusive: 35.5 µM [inhibitor, single point]

Question: With `Cc1ccc(-n2c(C)cc(/C=C3/C(=O)NC(=O)N(Cc4ccco4)C3=O)c2C)cc1` as the compound, how does the Potency read?
Answer: inactive

Question: For `COc1cccc(N=Nc2c(O)[nH]c(=S)[nH]c2=O)c1`, which Potency is on record?
Answer: inconclusive: 25.1 µM [inhibitor, single point]

Question: Which Potency does the source give for `O=C1NS(=O)c2cc([N+](=O)[O-])cc([N+](=O)[O-])c21` (stereo unspecified) here?
Answer: inactive

Question: Which Potency does the source give for `Cc1cc(C=C2C(=O)N(C)C(=S)N(C)C2=O)c(C)n1C1CCCC1` here?
Answer: inactive

Question: For `C=C1C(=O)O[C@H]2C[C@@H](C)[C@@H]3C=CC(=O)[C@@]3(C)C[C@H]12`, which Potency is on record?
Answer: active: 10 µM

Question: With `Cc1cccc(N2C(=O)NC(=O)/C(=C\c3cccn3-c3ccc(Cl)cc3)C2=O)c1` as the compound, how does the Potency read?
Answer: inconclusive: 22.4 µM [inhibitor, single point]

Question: With `COCCOC(=O)c1c(N)n(Cc2ccc(OC)cc2)c2nc3ccccc3nc12` as the compound, how does the Potency read?
Answer: inactive

Question: For `Cc1cccc(-n2c(/C=C/c3ccc([N+](=O)[O-])o3)nc3ccccc3c2=O)c1`, which Potency is on record?
Answer: inconclusive: 3.55 µM [inhibitor, partial curve]

Question: Which Potency does the source give for `C[C@@H]1CC[C@H]2[C@@H](C)C(=O)O[C@@H]3O[C@@]4(C)CC[C@@H]1[C@]32OO4` here?
Answer: inactive

Question: With `Cc1cccc(CN2CCCC(C(=O)c3cccc(OC(C)C)c3)C2)n1` (stereo unspecified) as the compound, how does the Potency read?
Answer: active: 15.8 µM

Question: With `Cc1ccc(C(=O)n2c(N)nc3ccccc32)cc1` as the compound, how does the Potency read?
Answer: active: 6.31 µM

Question: Which Potency does the source give for `COc1ccccc1-n1c(O)c(C=NCCN2CCNCC2)c(=O)[nH]c1=O` here?
Answer: inactive

Question: For `CN1CC[C@@]23CCCC[C@@H]2[C@@H]1Cc1ccc(O)cc13`, which Potency is on record?
Answer: inactive

Question: Which Potency does the source give for `CCCCn1c(NC(=O)c2ccc(Br)o2)c(C(=O)OCC)c2nc3ccccc3nc21` here?
Answer: inconclusive: 35.5 µM [inhibitor, single point]

Question: For `Cn1c(NN=O)nc2ccccc21`, which Potency is on record?
Answer: inconclusive: 112 µM [inhibitor, partial curve, poor fit]

Question: Which Potency does the source give for `CC(=O)O[C@@H]1[C@@H](O)C2OC3C=C(C)C(=O)[C@@H](O)[C@]3(CO)C1(C)C21CO1` (stereo partly specified) here?
Answer: active: 0.112 µM

Question: For `CC[C@H]1CN2CCc3cc(OC)c(OC)cc3[C@@H]2C[C@@H]1C[C@H]1NCCc2cc(OC)c(OC)cc21`, which Potency is on record?
Answer: active: 1.26 µM

Question: With `COC(=O)C(Cc1ccc(N(CCCl)CCCl)cc1)N=Cc1ccccc1O` (stereo unspecified) as the compound, how does the Potency read?
Answer: inconclusive: 17.8 µM [inhibitor, single point]

Question: For `O=C1OC(c2cc(I)c(O)c(I)c2)(c2cc(I)c(O)c(I)c2)c2ccccc21`, which Potency is on record?
Answer: inconclusive: 35.5 µM [inhibitor, single point]

Question: With `CC(C)C1(C)N=C(c2ncccc2C(=O)O)NC1=O` (stereo unspecified) as the compound, how does the Potency read?
Answer: inactive

Question: With `C=CCN1C(=O)/C(=C/c2ccc(N3CCOCC3)o2)C(=O)NC1=S` as the compound, how does the Potency read?
Answer: inconclusive: 5.62 µM [inhibitor, partial curve, poor fit]

Question: With `CC[C@@]1(O)C(=O)OCc2c1cc1n(c2=O)Cc2cc3cc(O)ccc3nc2-1` as the compound, how does the Potency read?
Answer: inconclusive: 7.08 µM [inhibitor, partial curve, poor fit] and inconclusive: 1.26 µM [inhibitor, full curve]

Question: For `O=c1[nH]c(O)c(N=Nc2ccc(S(=O)(=O)N3CCOCC3)cc2)c(=O)[nH]1`, which Potency is on record?
Answer: inactive

Question: With `OC12ONC(c3ccccn3)C1N1CCC2CC1` (stereo unspecified) as the compound, how does the Potency read?
Answer: inconclusive: 35.5 µM [inhibitor, single point]

Question: For `CCn1ccnc1CN1CCCC(C(=O)c2cc(C)c(OC)c(C)c2)C1` (stereo unspecified), which Potency is on record?
Answer: active: 11.2 µM

Question: For `CNC(=O)COC(=O)c1ccc(-c2nc3ccccc3s2)s1`, which Potency is on record?
Answer: active: 0.316 µM

Question: For `Cc1cc(NC(=O)CCl)on1`, which Potency is on record?
Answer: inconclusive: 22.4 µM [inhibitor, single point]

Question: Which Potency does the source give for `CCC(COC(=O)c1cc(OC)c(OC)c(OC)c1)(c1ccccc1)N(C)C` (stereo unspecified) here?
Answer: inactive

Question: For `CC(C)c1ccc(N2C(=O)CC(=O)NC2=O)cc1`, which Potency is on record?
Answer: inactive

Question: Which Potency does the source give for `O=C(NC(=S)N1C[C@H]2C[C@H](C1)c1cccc(=O)n1C2)c1ccc(Cl)cc1` here?
Answer: inconclusive: 25.1 µM [inhibitor, single point]

Question: For `O=C(c1ccc(C(F)(F)F)cc1)C1CCCN(Cc2ccncc2)C1` (stereo unspecified), which Potency is on record?
Answer: inconclusive: 14.1 µM [inhibitor, partial curve]

Question: With `CCCCOC(=O)N(C)SN(C)C(=O)Oc1cccc2c1OC(C)(C)C2` as the compound, how does the Potency read?
Answer: inconclusive: 25.1 µM [inhibitor, single point]

Question: Which Potency does the source give for `COc1ccc2c(c1)[nH]c1c(C)nccc12` here?
Answer: inconclusive: 35.5 µM [inhibitor, single point] and inconclusive: 15.8 µM [inhibitor, single point]

Question: Which Potency does the source give for `Cc1ccc(NC(=S)NCC2CCCO2)cc1` (stereo unspecified) here?
Answer: inconclusive: 35.5 µM [inhibitor, single point]

Question: With `COc1ccc(OC)c(N2C(=O)NC(=O)/C(=C\c3ccc([N+](=O)[O-])s3)C2=O)c1` as the compound, how does the Potency read?
Answer: inconclusive: 35.5 µM [inhibitor, single point]

Question: Which Potency does the source give for `O=C1NC(=O)N(CCc2ccc(F)cc2)C(=O)/C1=C/c1cccs1` here?
Answer: inactive

Question: For `c1ccc(Cc2nn3c(Cn4cnc5ccccc54)nnc3s2)cc1`, which Potency is on record?
Answer: inconclusive: 35.5 µM [inhibitor, single point]

Question: With `C[C@@H](NC(=O)[C@@H](N)Cc1ccc(O)cc1)C(=O)NCC(=O)N(C)[C@@H](Cc1ccccc1)C(=O)NCCO` as the compound, how does the Potency read?
Answer: inactive

Question: For `Oc1c(Cl)c(Cl)c(Cl)c(Cl)c1Cl`, which Potency is on record?
Answer: inconclusive: 35.5 µM [inhibitor, single point] and inconclusive: 25.1 µM [inhibitor, single point]

Question: For `CNC(=O)Oc1ccc(-c2cn3cc(C)ccc3n2)cc1`, which Potency is on record?
Answer: active: 3.98 µM

Question: With `Nc1c(C(=O)NCc2ccco2)c2nc3ccccc3nc2n1Cc1ccc(F)cc1` as the compound, how does the Potency read?
Answer: inactive

Question: For `COc1ccc(Cl)cc1C(=O)C1CCCN(Cc2cnc(C)s2)C1` (stereo unspecified), which Potency is on record?
Answer: inconclusive: 8.91 µM [inhibitor, partial curve]

Question: Which Potency does the source give for `C=CCn1c(O)c(C=NCCN(C)C)c(=O)[nH]c1=O` here?
Answer: inactive

Question: For `Cc1nc2cnc(N3CCNCC3)nc2n(C)c1=O`, which Potency is on record?
Answer: inactive

Question: Which Potency does the source give for `COc1ccc2c(c1)/C(=C/c1cnc[nH]1)C(=O)N2` here?
Answer: inconclusive: 35.5 µM [inhibitor, single point] and inconclusive: 7.08 µM [inhibitor, partial curve]

Question: With `O=c1[nH]c(=S)n(C2CC2)c(O)c1C=Nc1cccc(C(F)(F)F)c1` as the compound, how does the Potency read?
Answer: inactive

Question: With `COc1ccc(-n2c(SC)nc3ccccc3c2=O)cc1` as the compound, how does the Potency read?
Answer: inactive

Question: For `COc1ccccc1CCNC1CCC(C(C)(C)C)CC1` (stereo unspecified), which Potency is on record?
Answer: inconclusive: 1.12 µM [inhibitor, full curve, poor fit]

Question: For `COc1ccc(Cc2nccc3cc(OC)c(OC)cc23)cc1OC`, which Potency is on record?
Answer: active: 10 µM and active: 28.2 µM

Question: For `O=C(Nc1ccncc1)c1cccn(Cc2ccccc2)c1=O`, which Potency is on record?
Answer: inconclusive: 35.5 µM [inhibitor, single point]

Question: For `CC(=O)O[C@@]12CO[C@@H]1C[C@H](O)[C@@]1(C)C(=O)[C@H](O)C3=C(C)[C@@H](O)C[C@@](O)([C@@H](OC(=O)c4ccccc4)C12)C3(C)C` (stereo partly specified), which Potency is on record?
Answer: inactive

Question: Which Potency does the source give for `CCC(C)n1c(O)c(C=NC(C)c2ccccc2)c(=O)[nH]c1=S` (stereo unspecified) here?
Answer: inconclusive: 6.31 µM [inhibitor, single point]

Question: With `O=c1[nH]c(=O)n(CCC2=CCCCC2)c(O)c1/C=N/Nc1cccc2ccccc12` as the compound, how does the Potency read?
Answer: inconclusive: 35.5 µM [inhibitor, single point]

Question: For `CC1CCC[C@H](O)CCCCCc2cc(O)cc(O)c2C(=O)O1` (stereo partly specified), which Potency is on record?
Answer: inconclusive: 22.4 µM [inhibitor, single point]

Question: Which Potency does the source give for `N#Cc1c(Oc2cccc(OS(=O)(=O)CCCC(F)(F)F)c2)cccc1C(F)(F)F` here?
Answer: inconclusive: 35.5 µM [inhibitor, single point]

Question: With `CCCc1nc2ccc(Br)cc2c(=O)n1-c1ccc([N+](=O)[O-])c(C(F)(F)F)c1` as the compound, how does the Potency read?
Answer: inconclusive: 28.2 µM [inhibitor, single point]

Question: Which Potency does the source give for `CCOC(=O)c1c(C)[nH]c(C(=O)C(C)N2CCCC2)c1C` (stereo unspecified) here?
Answer: inactive

Question: With `O=C(N/N=C/c1c(O)n(CCC2=CCCCC2)c(=S)[nH]c1=O)c1ccccc1` as the compound, how does the Potency read?
Answer: inconclusive: 31.6 µM [inhibitor, single point]

Question: Which Potency does the source give for `Cc1ccc(CN2C3CCCC2CC(NC(=S)NCc2ccccc2)C3)cc1` (stereo unspecified) here?
Answer: active: 17.8 µM
